A number of entries come with more than one value. This list holds those alone. An entry can have further records. The records of an entry repeat one measurement (runs, samples, wells, individuals or studies). Non-standard residues stand in square brackets, D forms with d. Residues, ends and D or L forms follow the SMILES beside them.
Tests used:
Format in all cases: toxicity, cell-based
U2OS = test: Multiplex assay against U2OS; settings: human
In short: (§1)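 Imaging took place on a CQ1 microscope at 37°C and 5% CO2 once compound had been added to live cells stained at seeding with Hoechst33342, BioTracker Green Microtubule Cytoskeleton Dye, MitoTracker Red and Annexin V Alexa Fluor 680. CellPathfinder machine-learning gating classed cells as Hoechst high-intensity objects or normal cells, classed normal cells as having healthy, pyknosed or fragmented nuclei, and classed pyknosed cells as mitotic or apoptotic. Tubulin, mitochondrial-mass and membrane-permeability phenotypes are per cents of the healthy-nucleus cells.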

Fibroblast = test: Multiplex assay against human fibroblast; in short: as §1
HEK-293T = test: Multiplex assay against HEK293T; settings: human; in short: as §1
[1] = 12 h, 10 µM, compound concentration 10 uM
[2] = 24 h, 10 µM, compound concentration 10 uM
[3] = 48 h, 10 µM, compound concentration 10 uM
[4] = 48 h, 1 µM, compound concentration 1 uM
[5] = 24 h, 1 µM, compound concentration 1 uM
[6] = 12 h, 1 µM, compound concentration 1 uM

O=C(NCCO)c1cccc(-c2cc(Nc3ccc(OC(F)(F)F)cc3)ncn2)c1
Total Cell Count (U2OS; [1]): 274 and 77
Total Cell Count (U2OS; [2]): 344 and 96
Total Cell Count (U2OS; [3]): 473 and 143
Population Mitotic Cells (%) (Fibroblast; [4]): 17% and 54%

CC(C)(O)C(=O)N1CCN(c2ccc(C(F)(F)F)c(C3=C(c4c[nH]c5ccccc45)C(=O)NC3=O)c2)CC1
Population Fragmented Nuclei (%) (U2OS; [1]): 37% and 6%
Population Membrane Permeable-Phenotype (%) (Fibroblast; [1]): 1% and 15%

O=C1COc2nccc(-c3ccccc3F)c2CN1Cc1cc(C(F)(F)F)cc(C(F)(F)F)c1
Population Mitotic Cells (%) (U2OS; [1]): 29% and 0%
Population Mitotic Cells (%) (U2OS; [2]): 41% and 0%

Br.CS(=O)(=O)Nc1c(O)ccc2c1CCCC2C1=NCCN1 (stereo not drawn)
Population Mitotic Cells (%) (U2OS; [1]): 30% and 0%
Population Mitotic Cells (%) (U2OS; [5]): 23% and 7%
Population Fragmented Nuclei (%) (Fibroblast; [6]): 9% and 32%
Population Membrane Permeable-Phenotype (%) (Fibroblast; [1]): 1% and 12%

O=C1[C@H](Cc2ccc(O)cc2)N2C(=O)CCN(C(=O)NCc3ccccc3)[C@H]2CN1Cc1cccc2ccccc12
Population Mitotic Cells (%) (U2OS; [4]): 18% and 4%
Population Membrane Permeable-Phenotype (%) (Fibroblast; [2]): 1% and 13%

CC[C@H]1OC(=O)[C@H](C)[C@@H](O[C@H]2C[C@@](C)(OC)[C@@H](O)[C@H](C)O2)[C@H](C)[C@@H](O[C@@H]2O[C@H](C)C[C@H](N(C)C)[C@H]2O)[C@@]2(C)CC(C)=C(O2)[C@H](C)[C@@H](O)[C@]1(C)O
Population Mitotic Cells (%) (U2OS; [6]): 50% and 15%
Population Mitochondria Different-Phenotype (%) (Fibroblast; [2]): 37% and 12%
Population Mitochondria Different-Phenotype (%) (Fibroblast; [3]): 40% and 8%

Cc1sc2c(c1C)C(c1ccc(Cl)cc1)=N[C@H](CC(=O)OC(C)(C)C)c1nnc(C)n1-2
Population Membrane Permeable-Phenotype (%) (U2OS; [1]): 42% and 13%
Population Mitotic Cells (%) (U2OS; [1]): 48% and 10%
Population Tubulin-Different-Phenotype (%) (U2OS; [1]): 39% and 11%
Population Mitotic Cells (%) (U2OS; [4]): 22% and 3%
Population Mitotic Cells (%) (Fibroblast; [5]): 17% and 53%

CN(C)c1ccnc2sc3c(=O)n(N4CCCCCC4)cnc3c12
Population Mitotic Cells (%) (U2OS; [1]): 58% and 11%
Population Mitotic Cells (%) (U2OS; [2]): 31% and 0%
Population Tubulin-Different-Phenotype (%) (U2OS; [3]): 7% and 23%
Population Membrane Permeable-Phenotype (%) (Fibroblast; [1]): 1% and 12%
Population Pyknosed Nuclei (%) (Fibroblast; [3]): 30% and 9%

COc1cc(C(=O)N(CCCc2ccccc2)Cc2ccc(CC(=O)O)cc2)cc(OC)c1C
Population Mitotic Cells (%) (U2OS; [6]): 4% and 30%
Population Fragmented Nuclei (%) (Fibroblast; [5]): 11% and 44%
Population Mitotic Cells (%) (Fibroblast; [4]): 10% and 47%

CCCOc1ccc2[nH]cc(C3=CCNCC3)c2n1.Cl
Population Mitotic Cells (%) (U2OS; [1]): 13% and 40%
Population Mitotic Cells (%) (U2OS; [5]): 29% and 9%
Population Mitotic Cells (%) (U2OS; [2]): 7% and 27%
Population Mitotic Cells (%) (U2OS; [4]): 8% and 25%

COc1ccccc1N1CCN(C[C@@H](C(=O)NC(C)(C)C)c2ccccc2)CC1.Cl.Cl
Population Mitotic Cells (%) (U2OS; [3]): 41% and 4%
Population Mitochondria Different-Phenotype (%) (Fibroblast; [5]): 15% and 3%
Population Mitochondria Different-Phenotype (%) (Fibroblast; [2]): 37% and 8%
Population Mitotic Cells (%) (Fibroblast; [2]): 16% and 59%
Population Hoechst High Intensity Objects (%) (Fibroblast; [3]): 14% and 3%
Population Mitochondria Different-Phenotype (%) (Fibroblast; [3]): 34% and 8%
Population Mitotic Cells (%) (Fibroblast; [3]): 15% and 55%

C[C@H](N)COC(=O)[C@@H](CCCCN)NC(=O)Cc1c(-c2ccc3ccccc3c2)[nH]c2c1ccc1ccccc12
Population Membrane Permeable-Phenotype (%) (U2OS; [1]): 5% and 17%

Cl.c1ccc2c(c1)CCC[C@H]2Nc1nc2ccccc2[nH]1
Population Mitochondria Different-Phenotype (%) (U2OS; [1]): 0.56% and 16.11%
Population Healthy Nuclei (%) (HEK-293T; [6]): 54.46% and 14.47%
Population Mitochondria Different-Phenotype (%) (HEK-293T; [6]): 36.26% and 8.7%
Population Tubulin-Different-Phenotype (%) (HEK-293T; [6]): 2.34% and 21.74%
Population Healthy Nuclei (%) (HEK-293T; [1]): 49.86% and 10.14%
Population Mitochondria Different-Phenotype (%) (HEK-293T; [1]): 28.57% and 7.14%
Population Tubulin-Different-Phenotype (%) (HEK-293T; [1]): 6.29% and 28.57%
Population Mitochondria Different-Phenotype (%) (HEK-293T; [5]): 14.7% and 4.08%
Population Healthy Nuclei (%) (HEK-293T; [2]): 66.53% and 18.99%
Total Cell Count (HEK-293T; [2]): 505 and 158
Population Tubulin-Different-Phenotype (%) (HEK-293T; [4]): 2.59% and 30.82%
Total Cell Count (HEK-293T; [4]): 1007 and 229
Population Apoptotic (%) (HEK-293T; [3]): 5.65% and 21.62%
Population Tubulin-Different-Phenotype (%) (HEK-293T; [3]): 3.73% and 56.44%
Total Cell Count (HEK-293T; [3]): 950 and 182

Cc1onc(-c2ccccc2Cl)c1C(=O)N(C)c1ccc(Cl)cc1
Population Tubulin-Different-Phenotype (%) (Fibroblast; [5]): 16% and 56%
Population Pyknosed Nuclei (%) (Fibroblast; [2]): 7% and 23%

CCC(=O)OCC(=O)[C@@]1(OC(=O)CC)[C@@H](C)C[C@H]2[C@@H]3CCC4=CC(=O)C=C[C@]4(C)[C@@]3(Cl)[C@@H](O)C[C@@]21C [BECLOMETHASONE DIPROPIONATE]
Population Fragmented Nuclei (%) (U2OS; [1]): 42% and 12%
Population Fragmented Nuclei (%) (Fibroblast; [1]): 9% and 32%
Population Membrane Permeable-Phenotype (%) (Fibroblast; [1]): 1% and 15%
Population Membrane Permeable-Phenotype (%) (Fibroblast; [2]): 1% and 15%
Population Mitochondria Different-Phenotype (%) (Fibroblast; [3]): 47% and 15%

CC(C)C[C@@H]1NC(=O)[C@@H](C(C)C)NC(=O)[C@@H]2CCCN2C(=O)[C@@H](CC(=O)O)NC(=O)[C@@H](Cc2c[nH]c3ccccc23)NC1=O [BQ-123] (cyclo(L[dW][dD]P[dV]))
Population Mitotic Cells (%) (U2OS; [3]): 5% and 18%
Total Cell Count (U2OS; [3]): 435 and 131

O=c1ccc2ccc(OCCCCN3CCN(c4cccc5sccc45)CC3)cc2[nH]1 [BREXPIPRAZOLE]
Population Membrane Permeable-Phenotype (%) (U2OS; [4]): 9% and 34%

N#Cc1c(N)nc(SCc2csc(-c3ccc(Cl)cc3)n2)c(C#N)c1-c1ccc(OCCO)cc1 [CAPADENOSON]
Population Mitotic Cells (%) (U2OS; [5]): 12% and 38%
Population Fragmented Nuclei (%) (Fibroblast; [6]): 8% and 30%
Population Fragmented Nuclei (%) (Fibroblast; [5]): 11% and 35%
Population Mitochondria Different-Phenotype (%) (Fibroblast; [5]): 5% and 20%
Population Mitotic Cells (%) (Fibroblast; [3]): 18% and 63%

COc1ccc(Cl)cc1[C@]1(F)C(=O)Nc2cc(C(F)(F)F)ccc21 [FLINDOKALNER]
Population Healthy Nuclei (%) (HEK-293T; [6]): 58.22% and 13.55%
Population Tubulin-Different-Phenotype (%) (HEK-293T; [6]): 4.52% and 28.57%
Population Healthy Nuclei (%) (HEK-293T; [1]): 56.71% and 14.18%
Population Tubulin-Different-Phenotype (%) (HEK-293T; [1]): 7.73% and 47.37%
Population Healthy Nuclei (%) (HEK-293T; [5]): 71.63% and 17.28%
Total Cell Count (HEK-293T; [5]): 497 and 162
Population Tubulin-Different-Phenotype (%) (HEK-293T; [2]): 25.57% and 4.88%
Total Cell Count (HEK-293T; [2]): 507 and 160
Population Apoptotic (%) (HEK-293T; [4]): 4% and 27.59%
Population Pyknosed Nuclei (%) (HEK-293T; [4]): 12.72% and 42.44%
Population Tubulin-Different-Phenotype (%) (HEK-293T; [4]): 1.3% and 37.5%
Total Cell Count (HEK-293T; [4]): 1179 and 205
Population Tubulin-Different-Phenotype (%) (HEK-293T; [3]): 0.77% and 43.09%
Total Cell Count (HEK-293T; [3]): 1050 and 194
Population Mitochondria Different-Phenotype (%) (Fibroblast; [4]): 14.29% and 2.49%
Population Fragmented Nuclei (%) (Fibroblast; [3]): 15.93% and 3.4%

Cc1ccc(F)cc1C(=O)Nc1ccc(C(=O)N2Cc3cccn3Cc3ccccc32)c(Cl)c1 [LIXIVAPTAN]
Population Fragmented Nuclei (%) (U2OS; [6]): 32% and 8%
Population Mitotic Cells (%) (U2OS; [5]): 13% and 42%
Population Mitotic Cells (%) (U2OS; [3]): 25% and 7%

N[C@@]1(C(=O)O)CO[C@H]2[C@H](C(=O)O)[C@H]21 [LY-379268]
Population Membrane Permeable-Phenotype (%) (U2OS; [5]): 1% and 12%

Cc1cc(-c2ccc3c(c2)CC[C@H]3N2CC3(CCN(C(=O)Cc4cn5cc(C)sc5n4)CC3)C2)ncn1 [PF-5190457]
Population Pyknosed Nuclei (%) (Fibroblast; [6]): 11% and 34%
Population Apoptotic (%) (Fibroblast; [5]): 54% and 15%
Population Pyknosed Nuclei (%) (Fibroblast; [5]): 7% and 32%
Population Membrane Permeable-Phenotype (%) (Fibroblast; [4]): 2% and 14%
Population Mitotic Cells (%) (Fibroblast; [4]): 21% and 65%

CC(C)COc1ccc(CNC(=O)N(Cc2ccc(F)cc2)C2CCN(C)CC2)cc1 [PIMAVANSERIN]
Population Mitotic Cells (%) (Fibroblast; [4]): 11% and 47%
Population Mitotic Cells (%) (Fibroblast; [3]): 8% and 25%

CC(C)(C)c1ccc(CSc2cnn(C(C)(C)C)c(=O)c2Cl)cc1 [PYRIDABEN]
Population Mitochondria Different-Phenotype (%) (Fibroblast; [4]): 4% and 15%

CCCC(CCC)C(=O)O [VALPROIC ACID]
Population Mitochondria Different-Phenotype (%) (Fibroblast; [6]): 2% and 14%
Population Pyknosed Nuclei (%) (Fibroblast; [1]): 9% and 30%
Population Pyknosed Nuclei (%) (Fibroblast; [2]): 5% and 23%

Source: ChEMBL document CHEMBL5724801, “EUbOPEN Chemogenomics Library - Multiplex” (2024)
